Laboratory results reported in ChEMBL document CHEMBL4888484, “Replenishing the malaria drug discovery pipeline: Screening and hit evaluation of the MMV Hit Generation Library 1 (HGL1) against asexual blood stage Plasmodium falciparum ,using a nano luciferase reporter read-out” (2022).
About 540 (0.36%) of roughly 150,000 compounds showed an effect of 50% or more. The list shows a part of the results.

The molecules below were run on Plasmodium falciparum (assay: Primary screen in NF54 nanoGlo assay, in single point, at 2uM, 72h; a lower Z score goes with more inhibition). Details: timepoint 72 hour.
Format: functional, Erythrocyte
With CCc1nnc(NC(=O)[C@H](C)n2nc(C3CCNCC3)n(CC)c2=O)s1 the “% Inhibition” value was -13% and the Z score was 1.52. Cc1n[nH]c(C)c1CC(=O)N(Cc1ccccn1)Cc1ccco1 was tested, and the “% Inhibition” value was -16% and the Z score was 2.33. In the case of Cc1cnccc1CCN[C@@H](C)c1cn2ccccc2n1, the “% Inhibition” value is reported as -6% and the Z score is reported as 0.77. With Cc1cc(N2CCC[C@H](C(N)=O)C2)n2ncnc2n1 the “% Inhibition” value was -2% and the Z score was 0.29. In the case of CNC(=O)Cc1csc(NC(=O)Cc2noc3ccccc23)n1, the “% Inhibition” value is reported as -21% and the Z score is reported as 2.42. For COc1cccc(NC(=O)Cn2c(=O)n(CCCC(=O)NCc3ccco3)c(=O)c3cc(Cl)ccc32)c1, the “% Inhibition” value was -5% and the Z score was 0.74. For COc1cccc2c1CCC[C@@H]2NC1CCC(O)(c2cccnc2)CC1 (stereo not given in full), the “% Inhibition” value was -7% and the Z score was 0.87. With COc1ccc2c(c1)CN(C(=O)c1[nH]c(=O)[nH]c1C)CC2 the “% Inhibition” value was -10% and the Z score was 1.38. With Cc1ccc(CNC(=O)CC2CC2)c2cccnc12 the “% Inhibition” value was -16% and the Z score was 2.46. CC(C)(CO)N(Cc1ccncc1)C(=O)Nc1ccccc1Oc1ccccc1 was tested, and the “% Inhibition” value was 5% and the Z score was -0.85. For CCC(=O)N1CCc2cc(CNC(=O)c3cccc(C)c3)ccc21, the “% Inhibition” value was -5% and the Z score was 0.93. Cc1ccc(OCC(=O)N(Cc2ccco2)c2ccc(Cl)cc2)cc1 was tested, and the “% Inhibition” value was -11% and the Z score was 1.46. Cc1cccc(NC(=O)N2C3CCC2CC(Oc2ccccn2)C3)c1 (stereo not given) was tested, and the “% Inhibition” value was 3% and the Z score was -0.33. O=S1(=O)N=C(NCCc2cccc3ccccc23)c2ccccc21 was tested, and the “% Inhibition” value was -2% and the Z score was 0.37. Cc1ccc(CN(C)Cc2cnc(N3CCCC3)s2)o1 was tested, and the “% Inhibition” value was -13% and the Z score was 1.68. With CNc1nc(N[C@H]2CC[C@@H]3CCC[C@@H]32)ncc1F the “% Inhibition” value was -1% and the Z score was 0.18. In the case of C=C[C@H](COC)NC(=O)N1CCC(c2cncn2C)CC1, the “% Inhibition” value is reported as 3% and the Z score is reported as -0.64. In the case of CCOC(=O)C1CCN(C(=O)[C@@H]2COC3(CCN(C(=O)C(C)C)CC3)N2C(=O)c2ccc(F)cc2)CC1, the “% Inhibition” value is reported as -6% and the Z score is reported as 0.67. O=C(NCCN1CCCC1)C1CCN(c2ncnc3c2nc2n3CCCCC2)CC1 was tested, and the “% Inhibition” value was -5% and the Z score was 0.74. With Cc1noc2ncnc(NCc3cc(Cl)cc4c3OCC4)c12 the “% Inhibition” value was -11% and the Z score was 1.16. For CC(C)[C@@H]1CN(C(=O)c2ccc3[nH]nnc3c2)CCCN1CC1CC1, the “% Inhibition” value was -25% and the Z score was 2.28. With CN(c1ccc(Cl)c(C(=O)N2CCC(C(N)=O)CC2)c1)S(C)(=O)=O the “% Inhibition” value was -5% and the Z score was 0.91. With Cc1ocnc1C(=O)N[C@@H](C)c1nnc(C(C)C)o1 the “% Inhibition” value was -5% and the Z score was 0.94. Cc1nc(C)c(C(=O)Nc2cc(-c3cccc(F)c3F)n[nH]2)o1 was tested, and the “% Inhibition” value was -11% and the Z score was 1.16. For C[C@@H](C(=O)Nc1ccc2c(c1)OCCO2)N1CCC(c2nc3ccccc3s2)CC1, the “% Inhibition” value was -12% and the Z score was 1.52. With CC(C)NC(=O)CCc1cc2n(n1)CCN(C(=O)[C@H](N)C1CCCCC1)C2 the “% Inhibition” value was -5% and the Z score was 0.96. In the case of O=C(NS(=O)(=O)c1sccc1Cl)C1CCC2CCCCC2C1 (stereo not given), the “% Inhibition” value is reported as 1% and the Z score is reported as -0.21. For CC(C)N(CC(F)F)C(=O)CCc1ccc(F)cc1, the “% Inhibition” value was -5% and the Z score was 0.61. With CN1CC(C)(C)N(C(=O)c2ccc(CS(C)(=O)=O)o2)c2ccccc21 the “% Inhibition” value was -10% and the Z score was 1.16. CCCOc1cccc2c(NC3CCN(CCOC)CC3)ccnc12 was tested, and the “% Inhibition” value was 37% and the Z score was -4.91. In the case of CC(C)CC(=O)N1CCc2ccc(OCc3ccc(C(=O)N(C)Cc4ccco4)o3)cc2[C@@H]1c1ccc(F)cc1, the “% Inhibition” value is reported as -4% and the Z score is reported as 0.39. Cc1cc(S(=O)(=O)NCC2(Cn3cccn3)CC2)c(C)s1 was tested, and the “% Inhibition” value was -7% and the Z score was 0.73. O=C(c1cc(O)nc2ccccc12)N1CCCOCC1 was tested, and the “% Inhibition” value was -43% and the Z score was 5. With Cc1nc(NCCNS(=O)(=O)c2cccs2)cc(N(C)C)n1 the “% Inhibition” value was -3% and the Z score was 0.59. In the case of CCc1onc(C)c1C(=O)N1CCC2(CC1)NC(=O)[C@H](C)O2, the “% Inhibition” value is reported as 2% and the Z score is reported as -0.27. With CCN(CC)c1cc(CCC(=O)N(C)Cc2ccccc2)ccn1 the “% Inhibition” value was -6% and the Z score was 0.91. O=C(NCC1(CO)CCC1)Nc1cccc(C(F)(F)F)c1F was tested, and the “% Inhibition” value was 16% and the Z score was -2.07. With Cc1nc(Cc2c(C)n[nH]c2C)n(-c2cccnc2)n1 the “% Inhibition” value was -9% and the Z score was 1.78. For CC(C)O[C@@H](C)c1n[nH]c(=O)n1-c1ccc2c(c1)OCO2, the “% Inhibition” value was -11% and the Z score was 1.35. c1nc(NC2CC3CCC2O3)cc(NC2CC3CCC2O3)n1 (stereo not given) was tested, and the “% Inhibition” value was -8% and the Z score was 0.68. CCCN1CCN(C(=O)[C@H]2CCc3ncc(-c4ccsc4)n3C2)CC1 was tested, and the “% Inhibition” value was -9% and the Z score was 1.62. Cc1c(C(=O)Nc2cnn(CC3CC3)c2)nnn1-c1ccc(Cl)cc1F was tested, and the “% Inhibition” value was 1% and the Z score was -0.17. With Cc1cc(C(=O)NCCn2c(C)cc(C)nc2=O)nc(C)n1 the “% Inhibition” value was -10% and the Z score was 1.92. For CCN(Cc1cnn(C)c1)Cc1sccc1C, the “% Inhibition” value was 0% and the Z score was -0.06. For CNS(=O)(=O)c1cc(C(=O)NC2(c3cccc(C)c3)CCCC2)co1, the “% Inhibition” value was -15% and the Z score was 1.98. In the case of CN(Cc1ccoc1)C(=O)NCC1(c2ccccc2)CC1, the “% Inhibition” value is reported as -3% and the Z score is reported as 0.32. For CC(=O)N1CCCN(S(=O)(=O)c2ccc3c(c2)CCCC3)CCNC(=O)[C@@H]2CCC[C@@H]21, the “% Inhibition” value was 31% and the Z score was -3.48. For O=C(NCCc1cccnc1)N1CCC(C2CCOCC2)CC1, the “% Inhibition” value was -15% and the Z score was 2.44. O=C(NCCn1ccn2nccc12)c1ccc(S(=O)(=O)N2CCOCC2)cc1 was tested, and the “% Inhibition” value was 1% and the Z score was -0.17. For FC(F)(F)Cn1nc(Cc2cccs2)nc1CN1CCCC1, the “% Inhibition” value was -9% and the Z score was 2. With CC[C@H](NC(=O)N1CCN(c2nccs2)CC1)c1cccc(Cl)c1 the “% Inhibition” value was 0% and the Z score was 0.06. With Cc1ccc2c(OCc3ncnn3C)cccc2n1 the “% Inhibition” value was -9% and the Z score was 1.21. For O=C(NCc1cccc2c1OCC2)[C@H]1CCc2[nH]cnc2C1, the “% Inhibition” value was -16% and the Z score was 2.56. CN(C)C(=O)[C@H]1CCN(C(=O)c2cc(Br)co2)C1 was tested, and the “% Inhibition” value was 30% and the Z score was -3.44. O=C(NCc1cccnc1)N1CCN(C[C@H]2COCCO2)CC1 was tested, and the “% Inhibition” value was 1% and the Z score was -0.1. O=C(COc1ccc2ccccc2c1)N[C@H]1CC(=O)N(c2ccc3c(c2)OCCO3)C1 was tested, and the “% Inhibition” value was -17% and the Z score was 3.28. With O=C(NC1CCCCCCC1)[C@H]1CCCN(c2ccc3cc(S(=O)(=O)N4CCCC4)ccc3n2)C1 the “% Inhibition” value was -3% and the Z score was 0.38. For CC(C)(C)OC(=O)N1C[C@@H](O)CC1=O, the “% Inhibition” value was 38% and the Z score was -4.9. With NC(=O)c1nc2cc(NCc3cnc(C4CC4)nc3)ccc2o1 the “% Inhibition” value was -1% and the Z score was 0.1. In the case of O=C(C[C@H]1CCOC1)NCc1noc(Cc2cccs2)n1, the “% Inhibition” value is reported as -9% and the Z score is reported as 1.62. In the case of Cc1nnc(N2CCO[C@H](c3nccs3)C2)c(C#N)c1C, the “% Inhibition” value is reported as -16% and the Z score is reported as 2.16. Cc1nc(CN2CCN(C(=O)c3cccc4ccnn34)CC2)n[nH]1 was tested, and the “% Inhibition” value was -8% and the Z score was 1.71. In the case of COCCN1CCN(CCOc2ccc(F)cc2)[C@H]2CS(=O)(=O)C[C@H]21, the “% Inhibition” value is reported as -5% and the Z score is reported as 0.77. In the case of CCOc1ccc2c(c1)C(C)=CC(C)(C)N2Cc1ccc(CN2c3ccc(OCC)cc3C(C)=CC2(C)C)cc1, the “% Inhibition” value is reported as -7% and the Z score is reported as 1.4. With Cc1nnc([C@@H]2CC3(CCN(CC(C)C)CC3)CN2C(=O)c2ccccc2)o1 the “% Inhibition” value was 10% and the Z score was -1.33. With Cc1cccc(=O)n1CCCN1Cc2ncccc2C1=O the “% Inhibition” value was -7% and the Z score was 0.97. In the case of COc1ccccc1O[C@@H](C)C(=O)N(C)CC1(C)COC1, the “% Inhibition” value is reported as -1% and the Z score is reported as 0.13. O=C(Nc1ccc(Oc2ccsc2C(=O)O)cc1)c1cccs1 was tested, and the “% Inhibition” value was -1% and the Z score was 0.12. In the case of CCN(C)C(=O)C1CN(C(=O)c2ccc(Cl)cc2)CC1c1ccc(C)cc1 (stereo not given), the “% Inhibition” value is reported as -11% and the Z score is reported as 1.03. Cc1noc(C)c1C(=O)NCC1CCN(C(=O)c2cc3ccccc3s2)CC1 was tested, and the “% Inhibition” value was -3% and the Z score was 0.5. In the case of COC(=O)C[C@H]1CCN(C(=O)Nc2cccnc2Oc2ccc(F)cc2)C1, the “% Inhibition” value is reported as 3% and the Z score is reported as -0.62. CCc1nc(N)nc(NCCN2CCOC2=O)c1C was tested, and the “% Inhibition” value was 7% and the Z score was -0.66. For CC(C)(C)c1nc(N2CCN(C(=O)CO)CC2)no1, the “% Inhibition” value was 0% and the Z score was 0.03. Cc1nc2ccc(NC(=O)CS(=O)(=O)Cc3ccccc3)cc2s1 was tested, and the “% Inhibition” value was -17% and the Z score was 3.18. In the case of CC(=O)NCC(=O)NCc1ccnc(-c2ccco2)c1, the “% Inhibition” value is reported as -2% and the Z score is reported as 0.33. Cc1nc2n(c1C)CCN([C@@H](C(=O)NC1CC1)c1ccccc1)C2 was tested, and the “% Inhibition” value was -9% and the Z score was 1.28. In the case of O=C(Cc1cc(-c2ccccc2)on1)NCc1ccco1, the “% Inhibition” value is reported as -4% and the Z score is reported as 0.51. In the case of CCOCCC(=O)N1CCN(C(=O)CCOCC)[C@H](C#N)C1, the “% Inhibition” value is reported as -18% and the Z score is reported as 2.35. In the case of COCc1nc(C)c(C(=O)N2CCC[C@]3(CCCOC3)C2)s1, the “% Inhibition” value is reported as -7% and the Z score is reported as 0.98. For CCc1nc(C(C)NC(=O)N2CCC(CS(C)(=O)=O)C2)cs1 (stereo not given), the “% Inhibition” value was -6% and the Z score was 0.6. COc1cccc2sc(N3CC(C(=O)NCC(F)(F)F)C3)nc12 was tested, and the “% Inhibition” value was -7% and the Z score was 1.38. In the case of COCCn1nnnc1[C@]1(N2CCOCC2)CCCN(C(=O)Cn2nc(C)cc2C)C1, the “% Inhibition” value is reported as -12% and the Z score is reported as 1.56. With Cc1ccc(Oc2ncccc2CNC(=O)c2cccc(F)c2)cn1 the “% Inhibition” value was -13% and the Z score was 1.21. Cc1ccc(O)c(CNCC2(c3ccccc3Cl)CCOCC2)n1 was tested, and the “% Inhibition” value was 98% and the Z score was -10.48. For CCN(C(=O)c1ncccc1C)C1CCOCC1, the “% Inhibition” value was -1% and the Z score was 0.26.
